# Assay results reported in PubChem BioAssay AID1460 (National Center for Advancing Translational Sciences (NCATS), 2008).
# About 5,800 (2.1%) of roughly 270,000 compounds were called active. This list was built around the results that the source calls inconclusive (neither active nor inactive); the mix of calls is not that of the screen. Calls come from the whole dose curve; as a rule, active = well fitted inhibition curve with a large enough effect; inconclusive = small, poorly fitted or top-dose-only effect; inactive = flat fitted curve, though single readings scatter. Where the call is inconclusive, the potency comes from a doubtful curve fit.
# Molecular target: Microtubule-associated protein tau (Homo sapiens) (UniProt P10636)
# Assay: qHTS for Inhibitors of Tau Fibril Formation, Thioflavin T Binding; note: nearly all actives have a fitted effect of over 55% in size
# Conditions: recombinant tau K18 P301L, heparin-induced fibrillization, ThT fluorescence; series mostly up to 57.4 µM; activity, negative = inhibition: at the top concentration
# Summary of the method: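 ThT emission at 510 nm, taken 1 hr after adding 30 uM dye, quantifies aggregates formed when 20 uM heparin acts on human tau K18 P301L for 6 hr at 37 C.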
# % is set by controls: 0 for no effect and ±100 for the full control effect; potency is the fitted concentration of half-maximal effect; tags give direction and shape of the fitted curve.
# Chain of UniProt P10636 (P10636 whole entry, looked up): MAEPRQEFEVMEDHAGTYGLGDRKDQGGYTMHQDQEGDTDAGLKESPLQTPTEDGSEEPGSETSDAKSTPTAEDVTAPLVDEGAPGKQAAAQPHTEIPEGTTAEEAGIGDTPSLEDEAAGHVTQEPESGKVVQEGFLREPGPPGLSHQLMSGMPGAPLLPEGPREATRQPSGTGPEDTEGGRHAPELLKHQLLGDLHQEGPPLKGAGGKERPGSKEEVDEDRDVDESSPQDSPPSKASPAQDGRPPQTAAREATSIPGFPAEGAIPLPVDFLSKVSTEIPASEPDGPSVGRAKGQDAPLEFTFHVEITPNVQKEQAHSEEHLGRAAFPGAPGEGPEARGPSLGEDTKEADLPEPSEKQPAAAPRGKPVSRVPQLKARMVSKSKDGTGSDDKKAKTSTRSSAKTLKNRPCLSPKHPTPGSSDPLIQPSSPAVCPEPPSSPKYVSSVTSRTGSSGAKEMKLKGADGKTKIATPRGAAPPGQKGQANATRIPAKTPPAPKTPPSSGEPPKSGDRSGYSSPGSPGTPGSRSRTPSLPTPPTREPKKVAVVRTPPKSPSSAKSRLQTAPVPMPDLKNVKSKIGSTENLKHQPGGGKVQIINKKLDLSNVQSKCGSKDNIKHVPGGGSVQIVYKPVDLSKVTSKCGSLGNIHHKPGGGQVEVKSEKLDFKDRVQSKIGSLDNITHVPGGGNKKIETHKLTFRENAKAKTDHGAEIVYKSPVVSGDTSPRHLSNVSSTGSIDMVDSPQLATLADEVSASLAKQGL
Structure (SMILES),Potency,"activity, negative = inhibition"
COc1ccc(Nc2ccc3cc(S(=O)(=O)N4CCCC4)ccc3n2)cc1OC,"inconclusive: 12.6 µM [inhibitor, partial curve]",–
Cc1ccc(CSC2=Nc3ccccc3C3=NC(CCC(=O)NCc4cccs4)C(=O)N23)c(C)c1 (stereo unspecified),–,inactive: -17.5%
Cc1ccc(OCCCN2C(=O)C(=O)c3cc(C)ccc32)cc1,"inconclusive: 7.94 µM [inhibitor, partial curve]",–
Cc1ccc(C(C(=O)NCc2ccccc2)N(C(=O)c2csnn2)c2cccc3ccccc23)o1 (stereo unspecified),"inconclusive: 14.1 µM [inhibitor, partial curve, poor fit]",–
NC(=O)C1CCN(C2=C(Cl)C(=O)c3ccccc3C2=O)CC1,–,inactive: 13%
O=S(=O)(c1cnc[nH]1)N1CCc2ccccc21,"inconclusive: 39.8 µM [inhibitor, single point]",–
CN1CCN(S(=O)(=O)c2cccc(C(=O)NCc3ccc(Cl)cc3)c2)CC1,–,inactive: 1.81%
O=[N+]([O-])/C(C=Nc1ccccc1O)=C\Nc1ccccc1O,"inconclusive: 11.2 µM [inhibitor, partial curve]",–
Cc1ccc(Nc2nc(CSc3nnc(-c4cccnc4)n3-c3ccccc3F)cs2)cc1,"inconclusive: 20 µM [inhibitor, single point]",–
O=C(O)/C(=C\c1cccs1)Sc1nnc(-c2ccc(F)cc2)o1,"inconclusive: 0.158 µM [inhibitor, partial curve, poor fit]",–
COc1cccc(-c2ccc3c(N)c(C(=O)c4ccc(F)cc4)sc3n2)c1,"inconclusive: 7.94 µM [inhibitor, full curve]",–
Cc1ccc(-c2nc3n(n2)C(=O)CC(c2ccc(C)cc2)S3)cc1 (stereo unspecified),"inconclusive: 15.8 µM [inhibitor, partial curve, poor fit]",–
CNc1ccc(/C=C/C(=O)c2cccc3ccccc23)cc1[N+](=O)[O-],active: 6.31 µM,–
CC(C)(C)c1ccc(C(=O)NNC(=O)c2cccc(Br)c2)cc1,–,inactive: -12.9%
O=C(CN1CCN(Cc2ccccc2)CC1)N/N=C/c1ccco1,–,inactive: -8.71%
C=C(C)C(=O)c1ccc(OC)cc1,"inconclusive: 3.98 µM [inhibitor, single point]",–
CC[n+]1c(/C=C2\C=C(C)CC(C)C2)sc2ccccc21 (stereo unspecified),"inconclusive: 12.6 µM [inhibitor, partial curve]",–
Cc1ccc(-n2[nH]c(C)c(C=Nc3cc(C)ccn3)c2=O)cc1,"inconclusive: 20 µM [inhibitor, single point]",–
C=CCOCC1CN2C(CCC(C)C2c2ccc(Br)cc2)C(=O)O1 (stereo unspecified),–,inactive: -14.9% [at 11.5 µM]
CN1C(=O)C(CC(=O)Nc2ccc(Cl)cc2)N(Cc2ccco2)C1=S (stereo unspecified),–,inactive: -13.2%
CC(C)CCn1c(Oc2ccc(Cl)cc2)nc2c1c(=O)n(C)c(=O)n2C,"inconclusive: 39.8 µM [inhibitor, partial curve]",–
CCOc1ccc2nc3c(cc2c1)CN(CCCO)C(=NCCOC)S3,"inconclusive: 39.8 µM [inhibitor, single point]",–
O=C(Nc1ccc(Cl)c(Cl)c1)OCCNC(=O)c1ccncc1,–,inactive: -5.63%

Structure (SMILES),Potency,"activity, negative = inhibition"
O=C(N/N=C\c1cc(Br)c(Br)o1)C1COc2ccccc2O1 (stereo unspecified),"inconclusive: 31.6 µM [inhibitor, partial curve]",–
Cc1cc(NC(=O)CSc2nc3c(c(=O)n2-c2ccc(Br)cc2)SCC3)no1,"inconclusive: 20 µM [inhibitor, partial curve]",–
CC(=O)C1=C(C)N(Cc2ccccc2)C(=O)N[C@H]1c1ccco1,"inconclusive: 3.98 µM [inhibitor, single point]",–
Cc1cc(C(=O)CCl)c(C)n1CCc1ccc(Cl)cc1,"inconclusive: 25.1 µM [inhibitor, partial curve]",–
COc1ccc(CNc2nc(NCc3ccc(OC)cc3)n(C(=O)c3ccccc3[N+](=O)[O-])n2)cc1,"inconclusive: 14.1 µM [inhibitor, partial curve]",–
CCN(CC)c1ccc(/C=N/NC(=O)c2cnccn2)c(O)c1,active: 5.62 µM,–
CCc1ccc2c(c1)c1nc(C)sc1n2CC,active: 25.1 µM,–
Cc1ccc(S(=O)(=O)N2CCCc3cc(NS(=O)(=O)c4ccccc4)ccc32)cc1,–,inactive: 4.66%
CCCOc1ccc(C(=O)N2CCN(c3ccc(N)cc3Cl)CC2)cc1,"inconclusive: 15.8 µM [inhibitor, partial curve]",–
COC(=O)c1ccc([C@H]2Nc3ccc(S(=O)(=O)Nc4ccc(F)cc4)cc3[C@H]3C=CC[C@H]32)cc1,"inconclusive: 6.31 µM [inhibitor, partial curve, poor fit]",–
CCOc1ccc(C(=O)Nc2ccc(NC(=O)c3ccccc3)cc2)cc1Br,"inconclusive: 0.708 µM [inhibitor, full curve]",–
Cc1ccc(-c2n[nH]c3c2CCC3)cc1,"inconclusive: 1.41 µM [inhibitor, partial curve]",–
COC/C=C/C1=CC2=CC(=O)C(C)(OC(=O)c3cnc4ccccc4n3)C(=O)C2=CN1CC1CC1 (stereo unspecified),"inconclusive: 3.16 µM [inhibitor, partial curve, poor fit]",–
Cc1ccc(NC(=O)CCCCCNS(=O)(=O)c2ccc(C)cc2)cc1,–,inactive: -8.3%
CCOc1ccc(S(=O)(=O)N(CC(=O)NCCc2ccc(OC)cc2)c2ccccc2)cc1,–,inactive: -8.47%
CNCc1cn2cc(Cl)ccc2n1,–,inactive: -6.29%
CCOC(=O)c1c2ccc(OCC(=O)N/N=C/c3ccc(C)cc3)cc2n2ccccc12,"inconclusive: 0.891 µM [inhibitor, full curve]",–
O=C(c1cc(-c2cccs2)on1)N1CCN(c2ccccc2)CC1,"inconclusive: 17.8 µM [inhibitor, partial curve]",–
COc1ccc(S(=O)(=O)NCc2ccc3c(c2)CCN3C(C)=O)cc1OC,–,inactive: 2.47%
c1ccc(COC(CN2CCCCCC2)CN2CCCCCC2)cc1,–,inactive: 0.213%
COc1ccccc1CNC(=O)c1cnccn1,–,inactive: -19.4%
O=C(CSc1ncc(-c2ccc(Cl)cc2)[nH]1)Nc1ccccc1F,–,inactive: -22.1%
CCOC(=O)N1CCN(C(=O)CCCCCn2c(=S)[nH]c3ccsc3c2=O)CC1,"inconclusive: 2.24 µM [inhibitor, full curve]",–
